This is an account of results in patent US20240299393A1, “SMALL MOLECULE DISRUPTORS OF PROTEIN INTERACTIONS IN HISTONE DEACETYLASE COMPLEXES” (Dana-Farber Cancer Institute, Inc., priority 2021, published 2024).

Each structure is given as a SMILES string.

Assay [1] addresses Sin3 PAH2/Ume6 SID interaction (Saccharomyces cerevisiae, UniProt P22579). The assay is described as follows: biochemical.
The test system of assay [2] is yeast S. cerevisiae MaV208 transcriptome. The assay can be described thus: RNA-seq in yeast MaV208. The format is cell-based. As for the experimental part:
After yeast cells reached OD600 nm ˜0.5 in 0.8-1 mL of YPD, they were grown for two more hours at room temperature before being centrifuged to remove supernatant and freezing pellets on dry ice. For compound treatments, yeast cells at OD600 nm˜0.5 in YPD were incubated at room temperature for two hours with DMSO (1-1.6%) or the desired compound (from 25 mM stock in 100% DMSO) in an 2 mL-tube for a final volume of 0.8 mL in YPD, before being centrifuged, washed and frozen as described above. Yeast cells were then harvested for RNA extraction using a RiboPure RNA Purification Kit (Invitrogen, cat #AM1926), which involves mechanical cell wall disruption, phenol extraction of the lysate, and RNA purification using glass fiber, and filter-based RNA purification columns. RNA concentration was measured for individually purified RNA samples using a NanoDrop spectrophotometer. A total of 1 μg RNA from each sample was used for reverse transcription following a published procedure [Choi, S. G. et al 2012].
Following identical treatments as for RT-qPCR measurements, RNA was extracted as described above for yeast and neuroblastoma cells. Quality of the samples was checked by RT-qPCR before processing to RNA-Seq. RNA-Seq libraries for yeast (n=3 per condition) and neuroblastoma cells (n=3 per condition) were prepared according to the TruSeq stranded mRNA protocol (Illumina) and 101-bp single-end reads produced on an Illumina NovaSeq 6000 instrument. Reads were mapped to the human GRCh38 transcriptome (Ensembl cDNA release 97) or S. cerevisiae R64-1-1 (Ensembl cDNA release 97) and quantified using Salmon v0.8.2 [Patro et al 2017]. Read counts were summed to the gene level using tximport [Soneson et al 2015] and differential expression was assessed using DESeq2 [Love et al 2014]. Heatmaps were generated in R using the pheatmap package. The p-values of the overlaps were determined using two-sided Fisher's exact test and calculated using python function scipy.stats.fisher_exact.
All samples received the same amount of DMSO (0.7% of the total volume) for direct, side-by-side comparisons.

In assay [3] the test system is Rpd3L HDAC complex. The assay can be described thus: Yeast URS-URA3 reporter assay, agar diffusion format. It counts as cell-based, S. cerevisiae. The conditions noted are these: strains lacking Pho23 or Ume1. As for the experimental part:
To identify small molecule perturbants in an agar diffusion assay format, yeast cells were first seeded on the appropriate solid media (dried for at least three days at room temperature), at the indicated cell density per plate. After ˜30 min, compounds (dissolved in 100% DMSO) were then spotted (˜1 to 5 μL) at the indicated concentrations onto the seeded cells, to allow diffusion and formation of a circular concentration gradient around the original spot.
Using the agar diffusion assay format described above, the yeast Rpd3L HDAC complex was interrogated against 52,234 candidate small molecules (FIG. 32), tested in duplicate. JOY134 yeast cells were seeded at a density of ˜5×10^9 cells per plate on solid SC-LU medium, poured into Nunc OmniTray petri dishes. […] After five to seven days of incubation at 30° C., each duplicated plate was manually scored by comparing the rings of growth from candidate compounds to the DMSO controls. […]
The design of the assay is such that wild-type URS-URA3 yeast cells are plated onto solid medium lacking uracil. […] This primary positive selection for growth has obvious advantages over settings using negative readouts, such as reduction of reporter signal or cell viability. […]

The mark [4] stands for this setting: inhibitory concentration (Ki), from Example 6 IC50, assuming competitive inhibition.
Setting [5] is: inhibitory concentrations (Ki), from Example 6A IC50, assumption of competitive inhibition.

Sin3 PAH2/Ume6 SID interaction, sequence (P22579 402-473): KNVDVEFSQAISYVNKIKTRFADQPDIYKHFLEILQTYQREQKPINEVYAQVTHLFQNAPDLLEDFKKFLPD

The term Ki denotes the dissociation constant of the complex between target and ligand, obtained from inhibition or displacement. Read a high Ki as a looser hold on the target. Regarding `CC(NC(=O)c1c(O)n2ccccc2nc1=O)c1ccccc1` (racemic) [E6], the inhibition constant Ki is roughly 30 µM in assay [1] (setting [4]) and 29.1 µM in assay [1] (setting [5]).

What is called IC50 is the point on the concentration scale where inhibition reaches its midpoint. As for `C[C@@H](NC(=O)c1c(O)n2ccccc2nc1=O)c1ccccc1` [E6R, 4-hydroxy-2-oxo-N—((R)-1-phenylethyl)-3,4-dihydro-2H-pyrido[, 2-a]pyrimidine-3-carboxamide], in assay [2] (RNA-seq), the “share of Sin3- and Rpd3-dependent genes with altered expression” value stood at 20%. The “differentially expressed genes, up” value in assay [2] (WT+20 μM TSA or WT+50 μM E6R) is 237 genes. In addition, in assay [2] (WT+20 μM TSA or WT+50 μM E6R, fold change >2, p adjusted <0.05), the “differentially expressed genes, total” value turned out to be 351 genes. Also, in assay [1], the IC50 came out at 74.5 ± 7.2 µM. Further, the Ki in assay [1] (setting [4]) was roughly 30 µM; in assay [1] (setting [5]) it was 16.1 µM.

As for `CC(/C=C/C(=O)NO)=C\[C@@H](C)C(=O)c1ccc(N(C)C)cc1` [TSA, trichostatin A], the “chemical-genetic interaction in URS-URA3 reporter assay” value in assay [3] is reported as “enhanced Ura^+/Foa^− phenotypes”.
